In the assay the target is T1, biotinylated truncated STAT6 (123-632)-avi (Homo sapiens, UniProt P42226).
T1 sequence (P42226 123-632 limits assumed): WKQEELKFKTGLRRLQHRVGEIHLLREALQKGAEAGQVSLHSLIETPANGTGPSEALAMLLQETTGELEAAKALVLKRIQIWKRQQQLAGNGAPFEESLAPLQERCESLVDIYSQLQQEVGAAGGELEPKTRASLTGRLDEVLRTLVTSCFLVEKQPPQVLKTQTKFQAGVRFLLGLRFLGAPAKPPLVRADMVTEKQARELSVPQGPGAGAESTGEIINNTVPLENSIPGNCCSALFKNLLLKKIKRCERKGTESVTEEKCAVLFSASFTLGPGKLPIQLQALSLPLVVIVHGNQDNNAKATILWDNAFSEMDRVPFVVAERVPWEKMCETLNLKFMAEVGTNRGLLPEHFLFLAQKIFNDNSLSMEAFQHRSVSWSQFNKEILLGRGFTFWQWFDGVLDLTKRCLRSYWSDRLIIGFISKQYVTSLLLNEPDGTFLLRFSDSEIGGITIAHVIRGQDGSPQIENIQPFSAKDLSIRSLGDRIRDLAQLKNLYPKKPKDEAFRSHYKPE
The experiment in a line: Homogenous Time-Resolved Fluorescence (HTRF) binding assay. The settings on record: 0.15 nM biotinylated truncated STAT6 (123-632)-avi, 20 nM fluorescein-labeled probe, 30 minutes room temperature. In general terms: TR-FRET usually uses a lanthanide donor and a delayed reading to cut background.

What is called IC50 is the concentration that gives 50% inhibition. Low readings indicate greater potency, high ones weaker potency.

Molecules are shown by their SMILES.

As for `CCc1ccncc1-c1cc(C(=O)N2Cc3cnn(C)c3C2)cc2sc(N3CCCCC3=O)nc12` [Example I-1254], the concentration for half-maximal inhibition (IC50) fell in the range of 10 to 100 µM.
The same measure for `CCc1ccncc1-c1cc(C(=O)N2Cc3cnn(C)c3C2)cc2cc(C3CCCN(S(N)(=O)=O)C3)n(CC3CC3)c12` (stereo not drawn) [Example I-1255]: 10 to 100 µM.
The compound `CCc1cnccc1-c1cc(C(=O)N2Cc3cnn(C)c3C2)cc2c(F)c(C3CCCN(C(=O)CC(=O)O)C3)n(CC3CC3)c12` (stereo not drawn) [Example I-1257] displayed an IC50 of 10 to 100 µM.
As for `Cc1nnsc1C(=O)N1CCC=C(c2cc3cc(C(=O)N(C)C)ccc3[nH]2)C1` [Example I-1259], the IC50 lay within 10 to 100 µM.
For `COc1ccncc1-c1cc(C(=O)N2Cc3cnn(C)c3C2)cc2cc(C3CCCN(C(=O)CCn4ccnn4)C3)[nH]c12` (stereo not drawn) [Example I-1262], the IC50 was in the range of 10 to 100 µM.
`O=C(O)c1cc2cc(C3=CCCN(C(=O)CCn4ccnn4)C3)ccc2o1` [Example I-1263] displayed an IC50 of 10 to 100 µM.
Turning to `COc1ccccc1-c1cc(C2=CCCN(C(=O)CCn3ccnn3)C2)c(F)c2cc(C(F)(F)F)oc12` [Example I-1264], the half-inhibitory concentration (IC50) was 10 to 100 µM.
In turn, `COc1ccccc1-c1cccc2c(F)c(C3=CCCN(C(=O)CCn4ccnn4)C3)[nH]c12` [Example I-1267] had an IC50 of 10 to 100 µM.
`COc1ccccc1-c1cc(C(=O)N(C)C)cc2cc(C3CCCN(C(C)=O)C3)[nH]c12` (stereo not drawn) [Example I-1268] showed an IC50 of 10 to 100 µM.
In the case of `O=C(CCn1ccnn1)N1CCC=C(c2ccc3oc(-c4cnc5[nH]ccc5c4)cc3c2)C1` [Example I-1275], the IC50 is 10 to 100 µM.
In the case of `O=C(CCn1ccnn1)N1CCC=C(c2ccc3oc(-c4cnc(C5CC5)nc4)cc3c2)C1` [Example I-1276], the IC50 lay in the range of 10 to 100 µM.
The same measure for `COc1ccccc1-c1cc(C2=CCCN(C(=O)CCn3ccnn3)C2)c(F)c2[nH]ccc12` [Example I-1277]: 10 to 100 µM; for `O=C(CCn1ccnn1)N1CCC=C(c2ccc3oc(-c4cc(F)ccc4O)cc3c2)C1` [Example I-1279]: 10 to 100 µM; for `Cc1cc(-c2cc3cc(C4=CCCN(C(=O)CCn5ccnn5)C4)ccc3o2)ccc1F` [Example I-1280]: 10 to 100 µM.
For `O=C(CCn1ccnn1)N1CCC=C(c2ccc3oc(C4=CCCC4)cc3c2)C1` [Example I-1281] the value was 10 to 100 µM; for `O=C(CCn1ccnn1)N1CCC=C(c2ccc3oc(-c4cnoc4)cc3c2)C1` [Example I-1282], 10 to 100 µM.
`O=C(CCn1ccnn1)N1CCC=C(c2ccc3oc(-c4ccncc4)cc3c2)C1` [Example I-1283] displayed an IC50 of 10 to 100 µM.
For `CCOc1cc(F)ccc1-c1cc2cc(C3=CCCN(C(=O)CCn4ccnn4)C3)ccc2o1` [Example I-1284], the IC50 is 10 to 100 µM.
For the compound `Cn1ncc2ccc(-c3cc4cc(C5=CCCN(C(=O)CCn6ccnn6)C5)ccc4o3)cc21` [Example I-1285], the half-maximal inhibitory concentration (IC50) lay in the range of 10 to 100 µM.
Regarding `O=C(CCn1ccnn1)N1CCC=C(c2ccc3oc(-c4cccc(CCN5CCOCC5)c4)cc3c2)C1` [Example I-1287], the IC50 is 10 to 100 µM.
As for `Cc1c(-c2cc3cc(C4=CCCN(C(=O)CCn5ccnn5)C4)ccc3o2)cnn1C` [Example I-1288], the concentration for half-maximal inhibition (IC50) was in the range of 10 to 100 µM.
The compound `Cc1ccc(-c2cc3cc(C4=CCCN(C(=O)CCn5ccnn5)C4)ccc3o2)cn1` [Example I-1289] displayed an IC50 of 10 to 100 µM.
The same measure for `CN1CCN(c2cccc(-c3cc4cc(C5=CCCN(C(=O)CCn6ccnn6)C5)ccc4o3)c2)CC1` [Example I-1290]: 10 to 100 µM; for `O=C(CCn1ccnn1)N1CCC=C(c2ccc3oc(-c4ccccc4CN4CCOCC4)cc3c2)C1` [Example I-1291]: 10 to 100 µM; for `CN(C)C(=O)c1ccc2oc(C3=CCCN(C(=O)CCn4ccnn4)C3)nc2c1` [Example I-1292]: 10 to 100 µM.
Take `O=C(CCn1ccnn1)N1CCCC(n2ccc3cc(-n4cccn4)ccc32)C1` (stereo not drawn) [Example I-1299]: the IC50 lay in the range of 10 to 100 µM.
`CC(=O)N(C)c1ccc2c(ccn2C2CCCN(C(=O)CCn3ccnn3)C2)c1` (stereo not drawn) [Example I-1300] gave an IC50 of 10 to 100 µM.
As for `O=C(CCn1ccnn1)N1CCCC(n2ccc3cc(-c4ncccn4)ccc32)C1` (stereo not drawn) [Example I-1301], the IC50 was in the range of 10 to 100 µM.
`O=C(CCn1ccnn1)N1CCCC(n2ccc3cc(N4CCCCC4=O)ccc32)C1` (stereo not drawn) [Example I-1302] yielded an IC50 of 10 to 100 µM.
With `O=C(CCn1ccnn1)N1CCCC(n2ccc3cc(-n4ccccc4=O)ccc32)C1` (stereo not drawn) [Example I-1303], the IC50 fell in the range of 10 to 100 µM.
`O=C(CCn1ccnn1)N1CCCC(n2ccc3cc(N4CCCC4=O)ccc32)C1` (stereo not drawn) [Example I-1304] had an IC50 of 10 to 100 µM.
The compound `O=C(CCn1ccnn1)N1CCCC(n2ccc3cc(-c4ncco4)ccc32)C1` (stereo not drawn) [Example I-1305] gave an IC50 of 10 to 100 µM.
`O=C(CCn1ccnn1)N1CCCC(n2ccc3cc(-c4cocn4)ccc32)C1` (stereo not drawn) [Example I-1306] came in with an IC50 of 10 to 100 µM.
`O=C(CCn1ccnn1)N1CCCC(n2ccc3cc(-c4ccccn4)ccc32)C1` (stereo not drawn) [Example I-1307]: the IC50 lay in the range of 10 to 100 µM.
Regarding `CC(=O)Nc1ccc2c(ccn2C2CCCN(C(=O)CCn3ccnn3)C2)c1` (stereo not drawn) [Example I-1308], the 50% inhibitory concentration (IC50) was in the range of 10 to 100 µM.
`O=C(CCn1ccnn1)N1CCC=C(c2ccc3oc(Oc4ccccn4)cc3c2)C1` [Example I-1309] showed an IC50 of 10 to 100 µM.
For `CN(C)Cc1cc2ccc(C3=CCCN(C(=O)CCn4ccnn4)C3)cc2[nH]1` [Example I-1310] the value was 10 to 100 µM.
As to `O=C(CCn1ccnn1)N1CCC=C(c2ccc3cc(-c4cccnn4)[nH]c3c2)C1` [Example I-1313], the IC50 lay in the range of 10 to 100 µM.
Regarding `CN(C)C(=O)c1nc2cc(C3=CCCN(C(=O)CCn4ccnn4)C3)ccc2s1` [Example I-1315], the 50% inhibitory concentration (IC50) was in the range of 10 to 100 µM.
For `CN(C)C(=O)c1nc2cc(C3=CCCN(C(=O)CCc4ccccn4)C3)ccc2[nH]1` [Example I-1317], the IC50 was in the range of 10 to 100 µM.
`CN(C)C(=O)c1nc2cc(C3=CCCN(C(=O)CCn4ccnn4)C3)ccc2o1` [Example I-1319] returned an IC50 of 10 to 100 µM.
For `CN(C)C(=O)c1nc2ccc(C3=CCCN(C(=O)CCn4ccnn4)C3)cc2o1` [Example I-1321] the value was 10 to 100 µM; for `CCc1nc(C)ccc1-c1cc(C2=CCCN(C(=O)CCn3ccnn3)C2)c(F)c2sc(-n3c(C)nn(C)c3=O)cc12` [Example I-1326], under 0.1 µM; for `CCc1ccc(-c2cc(-n3c(C)nn(C)c3=O)cc3cc(C4=CCCN(C(=O)CCn5ccnn5)C4)sc23)c(C)n1` [Example I-1327], 0.1 to 1 µM.
The compound `CN(C)C(=O)c1cc2ccc(C3=CCCN(C(=O)NCc4cccc(C(N)=O)c4)C3)c(F)c2[nH]1` [Example I-1328] displayed an IC50 of 0.1 to 1 µM.
For `CN(C)C(=O)c1cc2ccc(C3=CCCN(C(=O)Nc4cccc(C(N)=O)c4)C3)c(F)c2[nH]1` [Example I-1329] the value was 1 to 10 µM.
For `CCc1nc(C)ccc1-c1cc(-n2c(C)nn(C)c2=O)cc2sc(C3=CCCN(C(=O)CCn4ccnn4)C3)cc12` [Example I-1330] the value was under 0.1 µM; for `CN(C)C(=O)c1cc2ccc(C3=CCCN(C(=O)CCn4ccc(C(N)=O)n4)C3)c(F)c2[nH]1` [Example I-1332], under 0.1 µM; for `Cc1nn(C)c(=O)n1-c1ccc2c(c1)cc(C1=CCCN(C(=O)CCn3ccnn3)C1)n2CC1CC1` [Example I-1333], 1 to 10 µM.
In turn, `CCc1ccncc1-c1cc(C2CCCN(S(C)(=O)=O)C2)c(F)c2[nH]c(C(=O)N3Cc4cnn(CC)c4C3)cc12` (stereo not drawn) [Example I-1334] yielded an IC50 of 10 to 100 µM.
`CCc1nc(C)ccc1-c1cc(C(=O)N2CCN(c3ncc(F)cc3OC)CC2)cc2c(F)c(C3CCCN(C(=O)C(=O)O)C3)n(CC3CC3)c12` (stereo not drawn) [Example I-1335]: the concentration for half-maximal inhibition (IC50) fell in the range of 1 to 10 µM.
Compound `CCc1nc(C)ccc1-c1cc(C(=O)N2Cc3cnn(C)c3C2)cc2c(F)c(C3CCCN(C(=O)CC(=O)O)C3)n(CC3CC3)c12` (stereo not drawn) [Example I-1336] yielded an IC50 of 1 to 10 µM.
For `CCc1nc(C)ccc1-c1cc(-n2c(C)nn(C)c2=O)cc2cc(C3=CCCN(C(C)=O)C3)n(CC3CC3)c12` [Example I-1339] the value was 1 to 10 µM; for `COc1ccccc1-c1cc(C2=CCCN(C(=O)CCn3ccnn3)C2)cc2[nH]c(=O)oc12` [Example I-1340], 0.1 to 1 µM.
Turning to `COc1ccncc1-c1cc(C2=CCCN(C(=O)CCn3ccnn3)C2)c(F)c2[nH]c(C(=O)N(C)C3CC3)cc12` [Example I-1341], the IC50 is under 0.1 µM.
The compound `CN(C(=O)c1cc2c(-c3cccnc3C3CC3)cc(C3=CCCN(C(=O)CCn4ccnn4)C3)c(F)c2[nH]1)C1CC1` [Example I-1342] gave an IC50 of under 0.1 µM.
Compound `Cc1ccc(-c2cc(C3=CCCN(C(=O)CCn4ccnn4)C3)c(F)c3[nH]c(C(=O)N(C)C4CC4)cc23)c(C2CC2)n1` [Example I-1343] came in with an IC50 of under 0.1 µM.
For `CCc1ccncc1-c1cc(C2=CCCN(C(=O)C(C)(C)C(=O)O)C2)c(F)c2[nH]c(C(=O)N3CCN(c4ncc(F)cc4OC)CC3)cc12` [Example I-1344], the IC50 lay in the range of 1 to 10 µM.
For the compound `COc1ccccc1-c1cc(C2=CCCN(C(=O)CCn3ccnn3)C2)c(F)c2[nH]c(C(=O)N3CCN(c4c(C)c5ccccc5n4CC4CC4)CC3)cc12` [Example I-1345], the IC50 lay in the range of 1 to 10 µM.
As to `COc1ccccc1-c1cc(C2=CCCN(C(=O)CCn3ccnn3)C2)c(F)c2[nH]c(C(=O)N3CCN(c4c(C(F)(F)F)ncn4C)CC3)cc12` [Example I-1346], the IC50 was under 0.1 µM.

Values taken from US20250214977A1, “STAT6 INHIBITORS AND USES THEREOF” (Kymera Therapeutics, Inc., priority 2024, published 2025).
